# The campaign covered roughly 43,000 compounds. About 200 (0.47%) were called active. About 12% were inconclusive and are not listed. Calls come from the whole dose curve; as a rule, active = well fitted cell-killing curve with a large enough effect; inconclusive = small, poorly fitted or top-dose-only effect, or effect the other way; inactive = flat fitted curve, though single readings scatter. Some of the results follow.
# Test: Cell viability qHTS assay in S16 Pmp22-F2sN cells; note: nearly all actives have a fitted effect of over 65% in size
# Conditions: S16 Pmp22-F2sN Schwann cells viability, CellTiter-Glo, 24 h; series mostly up to 57.5 µM; activity change, negative = cytotoxicity: at the top concentration
# Summary of the method: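 Used to flag compounds lowering reporter output through toxicity, this quantitative HTS measures ATP-based CellTiter-Glo luminescence in S16 Pmp22-F2sN Schwann cells after 24 h compound exposure at 37C.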
# % is set by controls: 0 for no effect and ±100 for the full control effect.
row,SMILES,"activity change, negative = cytotoxicity"
1,COC(=O)c1c(NC(=O)Cc2coc3cc(C)cc(C)c23)sc2c1CCC2,inactive: -3.64%
2,COc1cc(C(=O)NCc2ccc3c(c2)CCN3C(=O)c2ccc(Cl)cc2)cc(OC)c1OC,inactive: 12.2%
3,COc1cccc(Cn2c(C)c(CNCc3cccc(C)c3)c(C(=O)O)c2C)c1,inactive: 2.27%
4,CCc1ccc(NC(=O)c2cnc3c(-c4ccccc4)c(C)nn3c2C)cc1,inactive: 1.41%
5,CC(=O)c1ccc(NC(=O)c2ccc(-c3nc(CSc4ccc(C)cc4)c(C)o3)cc2)cc1,inactive: -4.01%
6,O=c1cc(COc2ccccc2Cl)nc2scc(-c3ccccc3)n12,inactive: 26.2%
7,COc1ccccc1CNC(=O)CCn1c(=O)c2ccccc2n(CC(=O)Nc2cc(Cl)ccc2C)c1=O,inactive: 0.299%
8,CCOC(=O)c1ccc(N2C(=O)c3[nH]nc(-c4ccc(OC)cc4)c3C2c2cccc(O)c2)cc1 (stereo unspecified),inactive: -13.2%
9,CCc1cccc(NC(=O)CSc2ncc3c(n2)-c2cc(Cl)ccc2N(C)S3(=O)=O)c1,inactive: -3.25%
10,COc1ccc(NC(=O)CCS(=O)(=O)c2nc(-c3ccc4c(c3)OCO4)cc(C(F)(F)F)n2)cc1OC,inactive: -17.1%
11,CCC(C)NC(=O)CCSc1nc(-c2ccc3c(c2)OCO3)cc(C(F)(F)F)n1 (stereo unspecified),inactive: -0.177%
12,Cc1ccc(C2NC(=O)c3n[nH]c(-c4cccs4)c32)cc1 (stereo unspecified),inactive: -5.85%
13,Cc1ccc(Cl)cc1N1CCN(C(=O)Cn2nc(C)c3sc4ccccc4c3c2=O)CC1,inactive: 4.21%
14,COc1ccc(-n2nc(C(=O)NCCc3ccc(OC)c(OC)c3)c3c4ccccc4n(C)c3c2=O)cc1,inactive: -21.8%
15,Cc1ccccc1-c1nc(CS(=O)(=O)CC(=O)NCCCc2ccccc2)c(C)o1,inactive: 10.6%
16,CCC(Sc1nnc2c3ccccc3n(CC)c2n1)C(=O)Nc1ccc(NC(C)=O)cc1 (stereo unspecified),inactive: -16%
17,CCCOc1cccc(C2c3c(oc4ccc(F)cc4c3=O)C(=O)N2CCc2ccc(OC)cc2)c1 (stereo unspecified),inactive: 5.79%
18,COc1cccc(C2C(C(=O)Nc3ccccc3OC)=C(C)Nc3nc(-c4ccco4)nn32)c1 (stereo unspecified),inactive: -2.44%
19,O=C(Cn1cnc2onc(-c3ccc(F)cc3)c2c1=O)N1CCN(c2ccc(F)cc2)CC1,inactive: -11.6%
20,O=C(Cn1nc(Cc2cccnc2)c2ccccc2c1=O)Nc1ccc(F)c(Cl)c1,inactive: -20.2%
21,COc1ccc(C(=O)NCC(c2ccc(Cl)cc2)N2CCCCC2)cc1 (stereo unspecified),inactive: 13.3%
22,COc1ccccc1CNC(=O)Cn1nc(C)n2cccc2c1=O,inactive: 0.0055%
23,CCC(C(=O)Nc1cc(C(F)(F)F)ccc1Cl)n1nc(C)c2sc3ccccc3c2c1=O (stereo unspecified),inactive: 9.27%
24,Cc1ccc(CN2C(=O)SC(Nc3ccc(Cl)cc3)C2=O)cc1 (stereo unspecified),inactive: 2.64%

row,SMILES,"activity change, negative = cytotoxicity"
1,CC1CCN(c2nc3ccc(C(=O)NC(C)C)cc3s2)CC1,inactive: -16.2%
2,Cc1ccc(Cc2c(C)nc3nc(SCC(=O)NCCC(C)C)nn3c2C)cc1,inactive: -5.73%
3,Cc1nn(C)c(C)c1S(=O)(=O)N(CC(=O)Nc1ccc(F)cc1F)c1ccc(C(C)C)cc1,inactive: -9.44%
4,COc1ccc(NC(=O)Cn2c(=O)n(-c3ccc(C)cc3)c(=O)c3c2c2cc(C)ccc2n3C)cc1,inactive: 1.25%
5,O=C(CN1C(=O)CCn2nc(-c3ccccc3)cc21)NCc1ccccc1,inactive: -0.129%
6,COc1cccc(CNC(=O)C(=O)NCC(c2ccco2)S(=O)(=O)c2ccccc2)c1 (stereo unspecified),inactive: -10.1%
7,CCCCNC(=O)CSc1nc2cc3c(cc2c(=O)n1Cc1ccc(C(=O)NCCc2ccc(OC)c(OC)c2)cc1)OCO3,inactive: -3.39%
8,Cn1c(=O)c(=O)n(C)c2cc(NS(=O)(=O)c3ccc(Br)cc3)c(Cl)cc21,inactive: -0.0041%
9,CCc1ccc(-n2nc(CO)c(C(=O)NCc3ccccc3Cl)n2)cc1,inactive: 1.15%
10,COc1ccc(NC(=O)N2CCCn3nc(C)cc32)cc1OC,inactive: 2.18%
11,CC(Oc1ccccc1)C(=O)Nc1ccc(C(=O)OCc2cc(=O)n3nc(C4CC4)sc3n2)cc1 (stereo unspecified),inactive: -6.83%
12,O=C(CCC(=O)N1Cc2ccccc2Oc2ncccc21)NCc1cccc(Cl)c1,inactive: 2.51%
13,COc1ccc(Cc2nc3ccccc3n2Cc2ccccc2C)cc1,inactive: -25.8%
14,Cc1cc2[nH]c(=O)c(=O)[nH]c2cc1S(=O)(=O)N1CCN(c2ccccc2)CC1,inactive: 3.8%
15,COc1ccc(-c2cc3ccc(O)c(CN4CCCC(C)C4)c3oc2=O)cc1OC (stereo unspecified),inactive: -1.95%
16,O=C(NCc1cccc(Cl)c1)c1ccc(NC(=O)N2CCSc3ccccc32)cc1,inactive: 1.15%
17,CCn1c(C(=O)NCc2ccccc2Cl)cc2sc(Cl)cc21,inactive: -5.16%
18,COc1ccc(-c2cn3c(n2)sc2cc(C(=O)Nc4ccc(C)c(Cl)c4)ccc23)cc1,inactive: 5.61%
19,CCOC(=O)c1[nH]c2c(c1Cc1ccccc1C)C(=O)CC(c1ccccc1)C2 (stereo unspecified),inactive: -28.4%
20,COC(=O)c1ccc(NC(=O)n2ncc3c(C)cccc32)cc1,inactive: 2.57%
21,CCOc1ccc(-c2nnc(SCC(=O)Nc3ccc(C)cc3C)o2)cc1,inactive: 8.16%
22,CC1=C(c2ccc(C(C)C)cc2)S(=O)(=O)N=C1N1CCC(C(=O)Nc2ccc(C)cc2)CC1,inactive: 1.7%
23,Cn1c(=O)cc(SCC(=O)NCc2ccc(F)cc2)c2cc(Cl)ccc21,inactive: 2.14%
24,Cc1ccc(S(=O)(=O)N2CCN(Cc3cc(=O)n4nc(-c5ccccc5Cl)sc4n3)CC2)cc1,inactive: 1.42%

row,SMILES,"activity change, negative = cytotoxicity"
1,Cc1c(C(=O)N2CCCCCC2)c(S(=O)(=O)Nc2cccc(C#N)c2)c(C)n1C,inactive: -13.4%
2,CC1(C)N=C(SCc2ccc(Cl)cc2)c2ccccc2N1,inactive: -18.2%
3,O=C(NCCc1ccccc1)C(=O)NCC(c1cccs1)S(=O)(=O)c1cccs1 (stereo unspecified),inactive: 4.86%
4,Cc1cc(=O)[nH]c2nnc(SCc3ccccc3F)n12,inactive: -8.1%
5,O=C(CSc1nc(-c2ccccc2F)nc2cc(=O)[nH]n12)Nc1cccc(C(F)(F)F)c1,inactive: -20.8%
6,CCOc1ccccc1-c1nc(Cn2c(=O)cc(C)c3c(C)nn(-c4ccccc4)c32)c(C)o1,inactive: 3.51%
7,Cc1cc(C)cc(NC(=O)C2CCCN2S(=O)(=O)c2ccc3nc(-c4ccccc4)[nH]c3c2)c1 (stereo unspecified),inactive: -11.7%
8,Cc1ccc(OCC(=O)Nc2ccc(S(=O)(=O)Nc3cc(C)on3)cc2)c(Br)c1,inactive: -13.8%
9,COC(=O)c1sc(-c2ccccc2)cc1NC(=O)Nc1ccc(F)cc1,inactive: -8.95%
10,COc1ccc(C(CC(=O)NCc2ccc(Cl)cc2)N2Cc3ccccc3C2=O)cc1OC (stereo unspecified),inactive: -6.75%
11,O=C(NCCn1cc(SCc2ccc(Br)cc2)c2ccccc21)c1cccs1,inactive: 2.42%
12,COc1ccc(CCNC(=O)C2CCN(Cc3nc(-c4ccc(OC)c(OC)c4)oc3C)CC2)cc1OC,inactive: 18.4%
13,Cc1ccc(/C=C(\C#N)C(=O)Nc2cccc(Cl)c2)o1,inactive: -2.85%
14,CCN(CC)C(=O)Cn1c(=O)n(CC2CCC(C(=O)NC)CC2)c(=O)c2sccc21 (stereo unspecified),inactive: -10.9%
15,CCC1Oc2ccccc2N(CC(=O)NCc2cc(OC)ccc2OC)C1=O (stereo unspecified),inactive: -5.1%
16,CCCC(=O)N1CCc2cc(OC)c(OC)cc2C1COc1ccc(C(=O)OC)cc1 (stereo unspecified),inactive: -2.91%
17,CCOc1ccc(CCNC(=O)CCCc2nnc3n(CC)c(=O)c4sccc4n23)cc1,inactive: -4.31%
18,CCSc1ncc(Cl)c(C(=O)Nc2c(C(=O)Nc3ccccc3)oc3ccccc23)n1,inactive: -6.85%
19,Cn1c(SCC(=O)Nc2nc3ccccc3s2)ncc(C(=O)Nc2ccccc2)c1=O,inactive: 1.27%
20,CCc1nc(-c2cc(S(=O)(=O)N3CCN(c4ccccc4)CC3)ccc2OC)no1,inactive: 13.7%
21,COc1cccc(CNC(=O)CN2C(=O)N(c3ccc(C)cc3C)S(=O)(=O)c3ccccc32)c1OC,inactive: -2.72%
22,CCc1nn(CC(=O)NCCCN(CC)CC)c(=O)c2cc3occc3n12,inactive: 6.11%
23,Cc1ccc2onc(CNC(=O)NCc3ccc(Cl)cc3)c2c1,inactive: -9.21%
24,O=C1COc2cc(S(=O)(=O)CCC(=O)NC3CCCCC3)c(Cl)cc2N1,inactive: 1.56%

row,SMILES,"activity change, negative = cytotoxicity"
1,COc1ccc(C)cc1-n1cnc2cc(C(=O)NC3CCCCCC3)ccc21,inactive: -1.08%
2,Cn1c(=O)c2c(-c3ccc(Br)cc3)n(Cc3ccc(F)cc3)cc2n(C)c1=O,inactive: -14.2%
3,COc1cccc(C(=O)Nc2cccc(-c3nc4ncccn4c3C)c2)c1,inactive: -11.5%
4,O=C(O)c1c(-c2ccccc2)oc2ccc(OCc3c(F)cccc3Cl)cc12,inactive: 4.32%
5,Cc1ccn2c(=O)cc(COc3ccc(NC(=O)COc4ccc(C)c(C)c4)cc3)nc2c1,inactive: 2.73%
6,Cc1ccc(OCC(=O)NCC(c2ccc(Cl)cc2)N2CCOCC2)cc1C (stereo unspecified),inactive: 1.83%
7,CCOc1cc(C2c3c(oc4ccccc4c3=O)C(=O)N2Cc2ccc(OC)cc2)ccc1O (stereo unspecified),inactive: 0.566%
8,COc1ccc(C)cc1NC(=O)c1cnc2ccc(C)cn2c1=O,inactive: -0.289%
9,O=c1c2ccccc2n(Cc2c(F)cccc2Cl)c(=O)n1CCc1ccccc1,inactive: 18.6%
10,Cc1ccc(C(=O)c2oc3ccccc3c2NC(=O)Cc2coc3ccc(C)cc23)cc1,inactive: -0.362%
11,CCOC(=O)c1c(C)[nH]c(C)c1S(=O)(=O)N(C)CC(=O)NCc1ccc(Cl)cc1,inactive: -29.6%
12,COc1ccc(-n2cnc3cc(C(=O)NC4CCCCCC4)ccc32)cc1,inactive: -2.81%
13,O=C(O)c1ccc2nc(-c3cc4cc(Cl)ccc4oc3=O)[nH]c2c1,inactive: 3.58%
14,Cc1ccc(-c2nc3c4ccccc4n(CC(=O)NCc4ccc(F)cc4)c(=O)n3n2)cc1,inactive: 1.81%
15,O=C(CCCCn1c(=O)c2ccccc2n(Cc2cccc(F)c2)c1=O)NCc1ccc2c(c1)OCO2,inactive: 12.5%
16,Cc1cccc(Nc2c(-c3ccsc3)nc3nc(C)cc(C)n23)c1,inactive: 0.0996%
17,Cc1ccc(-n2c(=O)c3c(cnn3C)n(Cc3ccc(Cl)cc3)c2=O)cc1,inactive: -20.9%
18,Cc1cccc(NC(=O)c2oc3ccccc3c2NC(=O)c2cc(=O)c3ccc(C)cc3o2)c1,inactive: 13.9%
19,Cc1cc(NC(=O)CCc2nc3cccnc3n2Cc2cccs2)ccc1Br,inactive: -34.4%
20,CCOc1ccc2nc(N3CCCC(C(=O)Nc4cc(C)ccc4C)C3)sc2c1 (stereo unspecified),inactive: 14.5%
21,Cc1ccc(NC(=O)Nc2c[nH]c(=O)[nH]c2=O)c(Cl)c1,inactive: -3.07%
22,CCc1ccccc1NC(=O)CSc1nnc(-c2ccc(OC)cc2)s1,inactive: 2.29%
23,CC(=O)Nc1ccc(NC(=O)C2CCN(S(=O)(=O)c3ccc4c(c3)CCCC(=O)N4)CC2)cc1,inactive: 18.6%
24,Cc1ccc(NS(=O)(=O)c2cc(-c3cc(C)no3)ccc2C)c(Cl)c1,inactive: 1.87%
